Like-named read-outs stand apart in the source and are kept apart here.
Tests used:
[1] = tested on: Pseudomonas aeruginosa biofilms
[2] = tested on: Mycobacterium abscessus complex (MABSC) biofilms; experiment: Activity against CF-isolate biofilms; settings: AMT0130-8
Excerpt: AMT0130-8 represents a CF-isolate of the clinically relevant MABSC, which frequently complicates the treatment of CF pulmonary infections. […] .
AMT0089-5 is a macrolide-resistant, amikacin-resistant MABSC. The involvement of such antibiotic-resistant strains of MABSC in the pulmonary infections of CF patients is extremely problematic. […] .
ATCC-19977 is M. abscessus (macrolide-resistant; inducible).

For `CC(S)C(C)S.[Bi]` (stereo not drawn) [BisBDT, bismuth-2,3-butanedithiol], the “Reductions in biofilm cell viability” value [1] was 2 logs, the “Reductions in biofilm cell viability” value ([1]; MR14 (MDR CF isolate), 25 ng/mL) was 2 logs and the “Reductions in biofilm cell viability” value [2] was “only very modest reductions”.

Reference: patent publication US20230124862A1, “BISMUTH THIOL COMPOUNDS AND COMPOSITIONS AND METHODS OF TREATING MICROBIAL CO-INFECTIONS” (Microbion Corporation, priority 2020, published 2023)
